The source gives no read counts; variants with many changes may rest on few reads.
B1: LINE1-mini (parent)
chain: GGCAGAGCUCAACACAGCGUGGCAAAGUGGCUGUGGCUAGACUGCC

Variants of: B1
Assay: self-cleavage, relative activity (ratio to wild type); higher = more cleavage; in vitro, sequencing; the parent is a self-cleaving ribozyme

Variant	self-cleavage
A11C G21C G27A G29A	0
A16C G30C G40C G44A C46G	0.02
C8G A16C G44C	0.01
G19C G44A C46U	0.05
A25U A26C U43A C46A	0.05
G5C A12U G19A G36C	0.04
A4U C23G G36U C37U	0.03
G1U C10U A12G C15U G19A G22A	0.01
A12G A26G U28A G29C	0.04
A6C G7A A24C G40A	0.17
C18A G19C A26C G36U C37U A41G	0.02
G7C A11G C31A C42G	0.01
G5C A6C C15G	0.01
G2U C8U C37A	0.17
G17C A24G G27A U32C	0.09
G2A C13A U20C G21C C23G	0.09
C18U G22U A39U C46A	0.19
C8G C15G U34G C46A	0.08
G1U A11G C31A G40U	0
G2U C15U U28A	0.02
C8U A16U G30A	0.39
A12G A14G C31U U34G C42A U43G	0.02
C3A G7U C10U A41U	0.27
C18U G22A G35C A39G	0.01

Variant	self-cleavage
G5C C13G G17U	0.23
G2U U38A A39C	0.2
C18G A39G G40C C45U	0.02
A4G C15A G35U	0.07
U9A U20C A25C G27A U38G	0.03
A14C G29U G36U C37A G44A	0.2
C10A G21U C37G A41U	0.01
A26C U28A G35U G36U A41U	0.1
C15A G17A A39C G44U	0.02
C8U C10U A14U C23A G40C	0.01
C3A G19A C42G	0.12
G2U U20G G21C	0.07
A14U C18U G29A G33U	0.05
C3A G29C A41G	0.51
C23A A25U G33U	0.2
G5C C31U A41C U43G	0.03
C13A G27C U28C	0.05
G7U G29U G30U C31G U43A	0.08
G17U C23A G35C A39C	0.01
G1A A4G C18A U34A	0.03
U9G A12U G17U G21C A24U U32A A41U	0.01
G2U C18A A26C G27A	0.12
G1C C18U G21C	0.23
A12U C15A C45A	0.06

Variant	self-cleavage
G17U A41C C46A	0.01
C8G A26G G33A C45G	0.02
G5C C13U C31A	0.28
G2C C10A A12C C18A G44A	0.02
A6C A12U G19U A25U G29A G30U G36C C42A	0.05
U20G C42G C46A	0.02
G22U C23A A26C	1.1
G17U C31U G40U C46A	0.02
C8G G33U G44U	0.07
A12G C13A G27C A41C	0.02
C15A C18U C37A	0.06
G17U G21C G27U C45A	0.03
G2U C3A C8G C13U A14C C45G	0.01
A6C A11U G29C U38C	0.04
G5U U9A A14C G33U G35C	0.02
A4G G5U U20G A39U C45U	0
C13U G19U C37A	0.16
C3A A24C U38G	0.07
G2C A4G C37U U38C G44U	0.04
G19U G27A G30A U38C	0.12
G1C G17A C23U A26U G30A G33A	0.04
A6U G7A G27U	0.07
C15U C31U A41G G44U	0.01
U28G U32G U34A U38C G44U	0.02

Variant	self-cleavage
A16G C31U G44A	0.03
A16U G33U G40U	0.1
C8U A11C A12G C18U C37A U43C	0.01
G2C A26G G29A G40C	0.08
A14G G30C G35A C42A	0.01
A4C C15A A24C A39C	0.01
C13G C18U G19A C46U	0.39
C3A U20A C23A G30C C31U C42A	0.19
C15A G17U C45A	0.02
G1U A4C A39U C42U C46U	0.01
G2U G27A C31U G36A A41U	0.01
C10U A26C C45A	1.18
A12U U34G C45G C46G	0
G1U C3G C10A A24G U34C C46U	0.03
C10A C18U G22U C23U G30U	0.02
G2U G33U U38A C42G	0.04
G19C G22A C45A	0.31
A11U C13U G30A	0.05
C10G G33U A39G	0.01
C10U G17A A26C U38C	0.04
A11C U32C G35C G36C	0.01
U20A G21C G35U	0.02
U32A C37A C45G	0.02
A4U C31U U38C G44A	0.05

Variant	self-cleavage
G21U G29A U43C	0.05
C23A G27A A41U U43A	0.07
C23A G33A C45G	0.04
C15U A25C A26U C45U	0.23
C15G G19A G27C C37A	0.17
C10A C13U G33U U43G C46U	0.02
A4C A16C U32G	0.19
G2C C3U A26U U32C G44A C46A	0.1
U9C G22U C23U	0.02
G1U C8G A39C	0.1
G2U C13U G17A G27U C31U	0.01
C3A A12G G17C C37A A39U	0.24
G2C C18A A41C	0
G1A A12C G36U C45U	0.03
G30A G36A A39U G40A	0.62
A14C A26C G27A	0.04
A6U A24C G30C	0.41
G2C A16G G27A	0.04
C8G C31A G40C G44A	0.01
C15U C18U G27U G29C A41G	0.11
C15U A26G G27U C37A C45A	0.03
A25C U32A U34G C37G C42U	0.03
G7U G17C G22U	0.01
G1C C8U G30U	0

Variant	self-cleavage
A12U G21U G27C U34C	0.05
C13A U32C A39G C42G C46U	0.01
C13A G21U C31A	0.06
A11C C18G A25C	0.01
A11U C15U G44U	0.03
C15U U20C A24G G27A G33U	0.15
G19U A24G G36A A39C	1.16
C10U G27C U34A U43A	0.03
G1U G17C A41C	0.02
C13A G21U G35U	0.74
G1U G5U C10A C23A C45G	0.03
A6U A11U C37U A41G	0.02
G1U U9A C13G A25G G30U G36C C37U	0
G2U C13U U20A A25G	0.03
U9A C37A G40C	0.18
G19A U20G C31A G44U	0.02
A6U U9C U43A	0.03
U9G A12C U32A U34C G40U	0.01
G22U U28A C37U A41U	0.04
A4C C10A G19A	0.01
U9G G19C C23U A26C U28C	0.02
A6U C10U A16U G17A G19A U38C	0.02
A4C A11G C15A G33A U34C	0.01
C10A C13A G19U	0.1

Variant	self-cleavage
A11C G19A U20C A39U C42G	0.01
G5U A16G G17U U20C G44A	0.02
G19A G27A G29U G35A	0.25
G36C U38C U43A	0.03
C18A U32C C37G	0.01
G17U A24G G27C G33C	0.02
A11U A24U G44C	0.01
A6U A16G C31G A41G	0
C3G A41U C46A	0.06
G1C U32A G33C G44A C46A	0
C10A C13U G19A U20A G33C	0.01
G1A G2C C23A G30C G36U G40C	0.05
A12C G29C U38G	0.01
G29A U34A A39C	0.13
U9C C18A A25C	0.01
C13A A26G U28G G30A	0.02
C8U A12G G21C A26C	0.15
C10G U34C C37U	0.01
C15A C23A C42A U43A	0.01
C10U G22U G35C G44A	0.02
C10U A11C C15U C18A G27U	0.01
A25C G44U C45A	0.03
A4C A16U C18G	0.2
